# According to the supplement of paper PMC7826260:
# The list shows a part of the results. Each Rep nickase domain was tested in vitro on the same pool of single strands (3 µM enzyme, 1 h, 37 °C); shown is the middle of each 90-letter strand. Numbers give uncut DNA relative to the enzyme-free pool, as log2; strong cutting gives strongly negative numbers. There is no active / inactive call. The scaling is to total reads, so uncut sequences can rise above 0 when many others are cut.
# What was measured:
# Experiment in all cases: uncleaved DNA left, log2 of reads against the no-enzyme library (log2 ratio); higher = less cleavage (more negative = more Rep cleavage of the k-mer); sequences stand for … in CTCGTCCG…ACCGGAGA
# [1] = test system: T1, Rep nickase domain of Muscovy duck circovirus
# T1 sequence (Rep 1-111, printed without the tag): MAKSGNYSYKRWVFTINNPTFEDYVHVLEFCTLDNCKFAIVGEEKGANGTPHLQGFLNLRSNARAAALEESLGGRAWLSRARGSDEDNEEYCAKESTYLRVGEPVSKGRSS
# Procedure: (§1)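 A pool of 90-nt single-stranded DNAs with seven random bases just before the constant AC of the nick site (name = the seven bases) was cut by 3 µM recombinant His6-SUMO-tagged Rep nickase domain (300 nM DNA, 50 mM HEPES pH 8.0, 50 mM NaCl, 1 mM MnCl2, 1 h, 37 °C, three replicates). Uncut DNA was amplified and sequenced.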
# [2] = test system: T2, Rep nickase domain of banana bunchy top virus
# T2 sequence (Rep 1-94, printed without the tag): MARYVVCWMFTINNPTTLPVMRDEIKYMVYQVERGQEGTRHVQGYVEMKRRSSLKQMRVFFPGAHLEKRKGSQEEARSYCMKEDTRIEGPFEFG
# Procedure: as §1
# [3] = test system: T3, Rep nickase domain of cabbage leaf curl virus
# T3 sequence (Rep 1-116, printed without the tag): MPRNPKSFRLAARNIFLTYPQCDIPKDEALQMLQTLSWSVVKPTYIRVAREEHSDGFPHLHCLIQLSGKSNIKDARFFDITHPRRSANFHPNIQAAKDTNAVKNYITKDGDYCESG
# Procedure: as §1
# [4] = test system: T4, Rep nickase domain of chickpea chlorotic dwarf virus
# T4 sequence (Rep 1-124, printed without the tag): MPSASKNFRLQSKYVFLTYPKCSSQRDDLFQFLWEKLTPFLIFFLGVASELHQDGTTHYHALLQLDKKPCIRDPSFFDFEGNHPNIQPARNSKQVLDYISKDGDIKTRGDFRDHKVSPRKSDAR
# Procedure: as §1
# [5] = test system: T5, Rep nickase domain of faba bean necrotic yellows virus
# T5 sequence (Rep 1-98, printed without the tag): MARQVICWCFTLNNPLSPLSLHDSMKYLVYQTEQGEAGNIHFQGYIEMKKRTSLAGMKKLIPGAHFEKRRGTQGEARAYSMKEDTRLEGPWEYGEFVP
# Procedure: as §1
# [6] = test system: T6, Rep nickase domain of maize striate mosaic virus
# T6 sequence (Rep 1-117, printed without the tag): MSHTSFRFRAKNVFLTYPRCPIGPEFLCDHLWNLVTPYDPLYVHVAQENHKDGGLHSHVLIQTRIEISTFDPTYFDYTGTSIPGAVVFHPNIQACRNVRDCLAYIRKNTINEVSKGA
# Procedure: as §1
# [7] = test system: T7, Rep nickase domain of porcine circovirus 2
# T7 sequence (Rep 2-116, printed without the tag): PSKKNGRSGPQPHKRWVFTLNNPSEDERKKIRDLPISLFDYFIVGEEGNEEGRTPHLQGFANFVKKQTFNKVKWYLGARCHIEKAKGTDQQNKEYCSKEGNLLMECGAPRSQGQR
# Procedure: as §1
# [8] = test system: T8, Rep nickase domain of tomato yellow leaf curl virus
# T8 sequence (Rep 1-136, printed without the tag): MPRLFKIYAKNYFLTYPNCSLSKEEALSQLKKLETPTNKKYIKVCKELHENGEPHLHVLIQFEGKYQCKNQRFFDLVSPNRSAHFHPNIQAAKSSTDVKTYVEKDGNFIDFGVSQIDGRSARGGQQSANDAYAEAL
# Procedure: as §1
# [9] = test system: T9, Rep nickase domain of wheat dwarf virus
# T9 sequence (Rep 1-137, printed without the tag): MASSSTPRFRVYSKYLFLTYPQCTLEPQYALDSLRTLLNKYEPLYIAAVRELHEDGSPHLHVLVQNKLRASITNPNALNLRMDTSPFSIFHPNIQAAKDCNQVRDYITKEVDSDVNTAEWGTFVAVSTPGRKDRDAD
# Procedure: as §1
Sequence,uncleaved DNA left (log2) [1],uncleaved DNA left (log2) [2],uncleaved DNA left (log2) [3],uncleaved DNA left (log2) [4],uncleaved DNA left (log2) [5],uncleaved DNA left (log2) [6],uncleaved DNA left (log2) [7],uncleaved DNA left (log2) [8],uncleaved DNA left (log2) [9]
AACACCG,0.0472,0.0898,-0.792,-0.218,0.0824,-0.819,0.154,-0.0514,0.0373
GCTGGAA,-0.0477,-0.194,0.176,0.953,0.0337,1.13,0.221,0.0909,-0.0204
GCGAACA,-0.0161,0.128,0.0277,0.0766,-0.0494,0.649,0.00727,-0.00451,0.0517
TCACAAT,0.158,0.0262,-0.0647,-1.53,0.165,-0.414,-0.0971,0.0825,-0.0759
CGTAAAA,0.024,0.0798,0.00829,0.172,0.00904,-0.689,0.0286,-0.0157,0.0393
GACGTGC,-0.0227,-0.0175,-0.0637,0.0905,-0.211,-0.449,-0.00853,-0.0292,-0.127
GCGTATA,0.0953,0.0112,0.0483,-0.217,0.0408,0.234,-0.138,0.111,0.0808
ACGCGGG,0.00374,-0.03,-0.515,-0.362,0.0177,-1,0.0744,-0.0804,-0.171
TCGCAGT,0.119,-0.0551,0.0492,-0.308,0.171,-0.745,-0.0578,0.159,-0.0177
GAGAAAG,0.227,0.0861,-0.235,0.0596,0.00394,-0.588,0.234,0.118,0.103
TCACAGC,0.0359,0.0341,-0.282,-0.653,0.00985,-1.05,0.19,0.0216,-0.0167
TTATCTA,0.0561,0.194,0.373,0.0335,0.0899,0.653,-0.0217,0.258,0.252
AATATTT,-0.788,-2.97,-2.73,-3.1,-0.00138,-1.06,-4.12,-0.0557,-0.412
CCGAGCA,0.00334,-0.0532,0.0951,0.268,-0.031,-0.143,-2.13,0.0671,0.0243
ACGCACA,0.0114,-0.0353,-0.0615,-0.932,0.0773,-0.574,-0.0629,0.0176,-0.00262
ATAGGAG,0.0609,-0.00869,0.0565,1.1,-0.032,0.518,0.163,-0.00751,0.0859
AATGCGC,0.0673,-0.0524,-0.704,0.549,0.154,-0.588,0.109,0.0785,-0.0162
CCACATC,-0.0765,0.00278,-0.0882,-0.569,-0.0509,-0.943,0.0346,-0.0869,-0.0473
TAGCCAG,0.11,0.0455,-0.372,-0.584,0.0934,-0.924,0.136,0.0788,0.135
GTCGACT,0.00386,-0.0934,0.0822,0.643,-0.0723,1.57,-0.0961,-0.161,0.00685
AGGAGGT,0.0744,0.1,0.386,1.51,0.101,1.76,0.25,-0.0106,0.119
GTAAATA,0.0423,0.0433,0.219,0.608,0.00152,1.53,0.086,0.109,0.113
CTCAATC,0.0214,0.0342,-0.389,0.234,-0.0655,-0.13,-0.145,-0.0498,0.0648
GTTCTTG,0.0688,-0.0258,0.214,0.36,0.0552,0.856,-0.022,0.169,0.0243
GATTCTA,-0.248,-0.0757,0.322,-0.211,0.08,1.21,-0.492,0.0335,0.0413
TTGCAAT,0.0605,0.155,-0.391,-0.582,0.128,-0.942,0.00593,0.13,0.0349
TGCCAGA,-0.00435,-0.0217,-0.0487,-0.258,-0.0847,-0.96,-0.0561,0.0244,-0.0729
CATCTTC,-0.0596,-0.167,-0.0989,-0.447,-0.136,-0.894,-0.152,-0.108,-0.0273
GTGCCAC,-0.0915,0.0958,0.373,1.01,-0.0497,1.74,0.135,0.0942,0.0362
AGCCAAA,0.244,0.212,0.377,0.704,0.136,0.329,0.0886,0.132,0.264
